This note sets out measurements from the supplement of paper PMC11417369.

Some of the results follow.

This assay deals with PfAP2-HC AP2 domain (GST-tagged). The assay is described as follows: gcPBM binding intensity (ln(normalized median fluorescence intensity)); higher = stronger DNA binding. The essentials:
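GST-fused DNA-binding domains of P. falciparum, expressed in E. coli, were applied at about 25 μg on average for 1 h to an Agilent 4 × 180k array of primer-extended double-stranded 36-bp intergenic genomic probes and negative controls. Binding intensity is the highest Masliner-normalised natural-log median intensity across replicate spots of either probe orientation, measured with Alexa488 anti-GST antibody and a 488 nm scan.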
Take “GTAGAGAAAAAAATGTGGACACAAAAAATAAAAAGG [XGTACX_site4058]”: the “gcPBM binding intensity (ln)” value is 9.79.
The figure for “TTTTTTTTTTTTTGCACACACATATATAAATATATA [CACACA_site3949]” is 9.91; for “TATATTGCAAAAAGTACACACATAAATAAATACATA [CACACA_site6589]” it is 9.92.
For “AGTAGTCTGGAGAAGAGTACATAGTATCTGGTAGCT [XGTACX_site2017]” the value was 9.72; for “CTACACACTTATAAATGTACAGGATTTAAGTATATG [XGTACX_site8245]”, 9.62.
The figure for “TATTTATTTATTTTGTTATAATTAAAATGGATACAT [XGTACX_negctrl_site387]” is 9.48; for “TAACTTAATAAAAAAAGTACATATATTTTTAATAAA [XGTACX_site2707]” it is 9.21.
For “AGTGAATATTACGAAACACACAAAAAAATACATTTC [CACACA_site511]”, the “gcPBM binding intensity (ln)” value stood at 10.1.
For “AAATATAATAATACATTGCACATATATTATATATAT [TGCATGCA_negctrl_site611]” the value was 9.69; for “TGTAATAATCTTCATTTCTTTTTTTTTTTTTTTTGT [CACACA_negctrl_site1388]”, 9.32.
The figure for “TTTGATAAATGATACACACACAATATTTATAAAATA [CACACA_site7040]” is 10.1; for “ACATTATATAAATATATACATATATATATATATAAA [GTGCAC_negctrl_site115]” it is 9.5.
In the case of “CCCACGTATATTTTGTGTACATAAATAAATAAATAA [XGTACX_site4046]”, the “gcPBM binding intensity (ln)” value turned out to be 9.46.
On to “TCTATTATCCTTTGCACACAAAATAAATGAAAAAAT [CACACA_site3029]”, for which the “gcPBM binding intensity (ln)” value worked out at 9.66.
For “ATATAAGTTTTTTCTCAAAAAGTATAACGAGCATGA [CACACA_negctrl_site1375]” the value was 9.65; for “AAACAACAAAAATGATATATATAAAATTTATAATAT [XGTACX_negctrl_site185]”, 9.7.
For “TATTTAATTATATAAAATTAAATTTTTAATTCTTCC [CACACA_negctrl_site473]”, the “gcPBM binding intensity (ln)” value amounted to 9.16.
The figure for “ATGCATAAAAGAAATACACACATAAATATATAAATA [CACACA_site2163]” is 9.99; for “TATGGATTACACAATTGTACAAGAAAAATGTAAATA [XGTACX_site4040]” it is 9.76.
For “TGTCATGATACATACACACACATACACATACACATA [CACACA_site2135]” the value was 10.2; for “TTTTTTTCATAATATACACACAAAAAAAAAAAAAAA [CACACA_site3224]”, 9.26.
For “ATATATATATATATGTGTACATATATATATCATATG [XGTACX_site3126]” the value was 9.68.
Turning to “TATACTCATATATAAACACACAAAAAAAAAAAAAAA [CACACA_site5165]”, the “gcPBM binding intensity (ln)” value came to 9.66.
The figure for “ATACGAAAATATTTTGCACACTATAATTATTCATAT [CACACA_site1765]” is 10.1.
